Test results taken from the CheMixHub viscosity set.
Values joined by “and” are separate entries in the source; they are usually repeats but may differ in a detail not shown here. Equal entries are not always repeated. This continues a long series; more values of the same kind are listed elsewhere.

Assay: xn = mol fraction of the nth substance listed

CCO + O
Conditions	viscosity
293.15 K, 100 kPa, x1 = 0.0376	1.412 mPa·s
293.15 K, 100 kPa, x1 = 0.0725	1.854 mPa·s
293.15 K, 100 kPa, x1 = 0.1152	2.348 mPa·s
293.15 K, 100 kPa, x1 = 0.163	2.655 mPa·s
293.15 K, 101 kPa, x1 = 0.042	1.602 mPa·s
293.15 K, 101 kPa, x1 = 0.09	2.113 mPa·s
293.15 K, 101 kPa, x1 = 0.1	2.71 mPa·s
293.15 K, 101 kPa, x1 = 0.14	2.592 mPa·s
293.15 K, 101 kPa, x1 = 0.25	2.98 mPa·s
293.15 K, 101 kPa, x1 = 0.28	2.915 mPa·s
293.15 K, 101 kPa, x1 = 0.37	2.67 mPa·s and 2.669 mPa·s
293.15 K, 101 kPa, x1 = 0.48	2.37 mPa·s and 2.497 mPa·s
293.15 K, 101 kPa, x1 = 0.61	2.008 mPa·s and 2.092 mPa·s
293.15 K, 101.33 kPa, x1 = 0.089	1.724 mPa·s
293.15 K, 101.33 kPa, x1 = 0.09267	2.162 mPa·s
293.15 K, 101.33 kPa, x1 = 0.14	2.131 mPa·s
293.15 K, 101.33 kPa, x1 = 0.21	2.742 mPa·s
293.15 K, 101.33 kPa, x1 = 0.2466	2.797 mPa·s
293.15 K, 101.33 kPa, x1 = 0.28	2.998 mPa·s
293.15 K, 101.33 kPa, x1 = 0.388	2.51 mPa·s
293.15 K, 101.33 kPa, x1 = 0.9798	1.241 mPa·s
293.16 K, 101.3 kPa, x1 = 0.61	2.008 mPa·s
293.18 K, 101.33 kPa, x1 = 0.0332	1.398 mPa·s
293.18 K, 101.33 kPa, x1 = 0.0714	1.906 mPa·s
293.18 K, 101.33 kPa, x1 = 0.1167	2.423 mPa·s
293.18 K, 101.33 kPa, x1 = 0.171	2.744 mPa·s
293.18 K, 101.33 kPa, x1 = 0.2365	2.832 mPa·s
293.18 K, 101.33 kPa, x1 = 0.3173	2.726 mPa·s
293.18 K, 101.33 kPa, x1 = 0.4194	2.469 mPa·s
293.18 K, 101.33 kPa, x1 = 0.5537	2.104 mPa·s
293.18 K, 101.33 kPa, x1 = 0.7355	1.698 mPa·s
298 K, 101.33 kPa, x1 = 0.1	1.973 mPa·s
298 K, 101.33 kPa, x1 = 0.3	2.467 mPa·s
298 K, 101.33 kPa, x1 = 0.4	2.25 mPa·s
298 K, 101.33 kPa, x1 = 0.5	2.025 mPa·s
298 K, 101.33 kPa, x1 = 0.6	1.823 mPa·s
298 K, 101.33 kPa, x1 = 0.8	1.438 mPa·s
298.15 K, 100 kPa, x1 = 0.116	2.008 mPa·s
298.15 K, 100 kPa, x1 = 0.235	2.536 mPa·s
298.15 K, 101 kPa, x1 = 0.02	1.065 mPa·s
298.15 K, 101 kPa, x1 = 0.04	1.323 mPa·s
298.15 K, 101 kPa, x1 = 0.06399	1.708 mPa·s
298.15 K, 101 kPa, x1 = 0.09	1.815 mPa·s
298.15 K, 101 kPa, x1 = 0.1	2.18 mPa·s and 1.824 mPa·s
298.15 K, 101 kPa, x1 = 0.14	2.13 mPa·s
298.15 K, 101 kPa, x1 = 0.1435	2.113 mPa·s
298.15 K, 101 kPa, x1 = 0.1605	2.506 mPa·s
298.15 K, 101 kPa, x1 = 0.1739	2.561 mPa·s
298.15 K, 101 kPa, x1 = 0.2092	2.617 mPa·s
298.15 K, 101 kPa, x1 = 0.2431	2.637 mPa·s
298.15 K, 101 kPa, x1 = 0.2688	2.624 mPa·s
298.15 K, 101 kPa, x1 = 0.28	2.4 mPa·s and 2.33 mPa·s
298.15 K, 101 kPa, x1 = 0.3195	2.552 mPa·s
298.15 K, 101 kPa, x1 = 0.3567	2.478 mPa·s
298.15 K, 101 kPa, x1 = 0.48	2.037 mPa·s and 2.04 mPa·s
298.15 K, 101 kPa, x1 = 0.6026	2.233 mPa·s
298.15 K, 101 kPa, x1 = 0.61	1.72 mPa·s
298.15 K, 101 kPa, x1 = 0.8	1.424 mPa·s
298.15 K, 101 kPa, x1 = 0.9584	1.275 mPa·s
298.15 K, 101.33 kPa, x1 = 0.0408	1.286 mPa·s
298.15 K, 101.33 kPa, x1 = 0.0807	1.697 mPa·s
298.15 K, 101.33 kPa, x1 = 0.09267	1.829 mPa·s
298.15 K, 101.33 kPa, x1 = 0.1424	2.152 mPa·s
298.15 K, 101.33 kPa, x1 = 0.1961	2.317 mPa·s
298.15 K, 101.33 kPa, x1 = 0.2826	2.322 mPa·s
298.15 K, 101.33 kPa, x1 = 0.4795	1.969 mPa·s
298.15 K, 101.33 kPa, x1 = 0.6136	1.694 mPa·s
298.15 K, 101.33 kPa, x1 = 0.7764	1.42 mPa·s
298.15 K, 101.33 kPa, x1 = 0.9798	1.115 mPa·s
298.16 K, 101.33 kPa, x1 = 0.0332	1.214 mPa·s
298.16 K, 101.33 kPa, x1 = 0.0714	1.617 mPa·s
298.16 K, 101.33 kPa, x1 = 0.1167	2.015 mPa·s
298.16 K, 101.33 kPa, x1 = 0.171	2.271 mPa·s
298.16 K, 101.33 kPa, x1 = 0.4194	2.114 mPa·s
298.16 K, 101.33 kPa, x1 = 0.5537	1.833 mPa·s
303.15 K, 100 kPa, x1 = 0.0725	1.336 mPa·s
303.15 K, 100 kPa, x1 = 0.1152	1.647 mPa·s
303.15 K, 101 kPa, x1 = 0.042	1.263 mPa·s
303.15 K, 101 kPa, x1 = 0.08887	1.538 mPa·s
303.15 K, 101 kPa, x1 = 0.089	1.687 mPa·s
303.15 K, 101 kPa, x1 = 0.21	2.161 mPa·s
303.15 K, 101 kPa, x1 = 0.25	2.227 mPa·s
303.15 K, 101 kPa, x1 = 0.28	2.133 mPa·s
303.15 K, 101 kPa, x1 = 0.3676	1.903 mPa·s
303.15 K, 101 kPa, x1 = 0.4785	1.744 mPa·s
303.15 K, 101 kPa, x1 = 0.48	1.767 mPa·s
303.15 K, 101 kPa, x1 = 0.4821	1.739 mPa·s
303.15 K, 101 kPa, x1 = 0.61	1.556 mPa·s
303.15 K, 101 kPa, x1 = 0.7918	1.401 mPa·s
303.15 K, 101 kPa, x1 = 0.8	1.279 mPa·s
303.15 K, 101 kPa, x1 = 0.8487	1.169 mPa·s
303.15 K, 101 kPa, x2 = 0.00096	0.9953 mPa·s
303.15 K, 101.33 kPa, x1 = 0.0399	1.057 mPa·s
303.15 K, 101.33 kPa, x1 = 0.087	1.416 mPa·s
303.15 K, 101.33 kPa, x1 = 0.089	1.343 mPa·s
303.15 K, 101.33 kPa, x1 = 0.3526	1.772 mPa·s
303.15 K, 101.33 kPa, x1 = 0.388	1.834 mPa·s
303.15 K, 101.33 kPa, x1 = 0.9798	0.9905 mPa·s
303.16 K, 101.33 kPa, x1 = 0.0332	1.063 mPa·s
303.16 K, 101.33 kPa, x1 = 0.171	1.907 mPa·s
303.16 K, 101.33 kPa, x1 = 0.3173	1.956 mPa·s
303.16 K, 101.33 kPa, x1 = 0.7355	1.335 mPa·s
308.15 K, 100 kPa, x1 = 0.033	0.948 mPa·s
308.15 K, 100 kPa, x1 = 0.235	1.796 mPa·s
308.15 K, 101 kPa, x1 = 0.095	1.254 mPa·s
